In the supplement of paper PMC4967469:
IC50 is the fitted dose that halves viability relative to control wells, and lower means more sensitive; a fit beyond the top or the lowest dose is shown as a bound at that dose. For AUC the same curve is integrated over the 256-fold range of doses and scaled to a fraction; it is 1 without any effect and falls as sensitivity rises. For some assays here: The top dose, if marked as inferred, was calculated from the reported fits.

Assays:
Test in all cases: Viability of human cancer cell lines after 72 h of drug (GDSC screen)
JW-7-52-1 = compound: CCC(=O)N1CCN(c2ccc(-n3c(=O)ccc4cnc5ccc(-c6cnc7ccccc7c6)cc5c43)cc2C(F)(F)F)CC1 [JW-7-52-1]; settings: top dose 1.2 µM; top dose inferred
Procedure: (§1)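 Human cancer cell lines in 384-well plates, medium with 10% serum, drug for 72 h over a 256-fold dose range (nine 2-fold or five 4-fold steps up to the top dose). Adherent lines were fixed and stained with the nucleic acid dye Syto60, suspension lines read with resazurin; signal relative to control wells, capped at 0 and 100%. One two-parameter sigmoid per drug and line, fitted in a mixed model over all curves with the slope shared within a line.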

Z-LLNle-CHO = compound: CCCC[C@@H](C=O)NC(=O)[C@H](CC(C)C)NC(=O)[C@H](CC(C)C)NC(=O)OCc1ccccc1 [Z-LLNle-CHO]; settings: top dose 2.56 µM; top dose inferred
Procedure: as §1

Tubastatin A = compound: CN1CCc2c(c3ccccc3n2Cc2ccc(C(=O)NO)cc2)C1 [Tubastatin A]; settings: top dose 20 µM
Procedure: as §1

Rapamycin = compound: CO[C@H]1C[C@@H]2CC[C@@H](C)[C@@](O)(O2)C(=O)C(=O)N2CCCC[C@H]2C(=O)O[C@H]([C@H](C)C[C@@H]2CC[C@@H](O)[C@H](OC)C2)CC(=O)[C@H](C)/C=C(\C)[C@@H](O)[C@@H](OC)C(=O)[C@H](C)C[C@H](C)/C=C/C=C/C=C/1C [Rapamycin]; settings: top dose 0.1 µM; top dose inferred
Procedure: as §1

XL-880 = compound: COc1cc2c(Oc3ccc(NC(=O)C4(C(=O)Nc5ccc(F)cc5)CC4)cc3F)ccnc2cc1OCCCN1CCOCC1 [XL-880]; settings: top dose 5.12 µM; top dose inferred
Procedure: as §1

Temozolomide = compound: Cn1nnc2c(C(N)=O)ncn2c1=O [Temozolomide]; settings: top dose 30 µM
Procedure: as §1

CI-1040 = compound: O=C(NOCC1CC1)c1ccc(F)c(F)c1Nc1ccc(I)cc1Cl [CI-1040]; settings: top dose 10 µM; top dose inferred
Procedure: as §1

IPA-3 = compound: Oc1ccc2ccccc2c1SSc1c(O)ccc2ccccc12 [IPA-3]; settings: top dose 32 µM; top dose inferred
Procedure: as §1

Cell Line | AUC (JW-7-52-1) | IC50 (JW-7-52-1) [µM] | AUC (Z-LLNle-CHO) | IC50 (Z-LLNle-CHO) [µM] | AUC (Tubastatin A) | IC50 (Tubastatin A) [µM] | AUC (Rapamycin) | IC50 (Rapamycin) [µM] | AUC (XL-880) | IC50 (XL-880) [µM] | AUC (Temozolomide) | IC50 (Temozolomide) [µM] | AUC (CI-1040) | IC50 (CI-1040) [µM] | AUC (IPA-3) | IC50 (IPA-3) [µM]
MOLP-8 (myeloma, suspension) | 0.22 | 0.0118 | 0.76 | 0.869 | 0.788 | 8.44 | 0.229 | 0.00106 | 0.622 | 0.683 | 0.958 | > 30 | 0.801 | 4.66 | 0.796 | 14.3
SUP-HD1 (Hodgkin lymphoma, suspension) | 0.604 | 0.143 | 0.702 | 0.574 | 0.898 | > 20 | 0.79 | 0.0424 | 0.658 | 0.857 | 0.978 | > 30 | 0.88 | 9.54 | 0.856 | 23.8
CP66-MEL (melanoma, adherent) | 0.652 | 0.21 | 0.72 | 0.742 | 0.985 | > 20 | 0.981 | > 0.1 | 0.854 | 4.98 | 0.983 | > 30 | 0.38 | 0.278 | 0.947 | > 32
Raji (Burkitt lymphoma, suspension) | 0.816 | 0.609 | 0.78 | 0.985 | 0.913 | > 20 | 0.816 | 0.051 | 0.833 | 3.01 | 0.987 | > 30 | 0.954 | > 10 | 0.931 | > 32
P31-FUJ (acute myeloid leukaemia, suspension) | 0.953 | > 1.2 | 0.981 | > 2.56 | 0.983 | > 20 | 0.996 | > 0.1 | 0.935 | > 5.12 | 0.979 | > 30 | 0.971 | > 10 | 0.958 | > 32
IST-SL1 (small cell lung carcinoma, semi-adherent) | 0.758 | 0.426 | 0.804 | 1.32 | 0.742 | 6.31 | 0.912 | > 0.1 | 0.495 | 0.311 | 0.968 | > 30 | 0.924 | > 10 | 0.937 | > 32
DMS-79 (small cell lung carcinoma, suspension) | 0.85 | 1.15 | 0.931 | > 2.56 | 0.983 | > 20 | 0.916 | > 0.1 | 0.816 | 3.43 | 0.984 | > 30 | 0.983 | > 10 | 0.987 | > 32
KARPAS-299 (anaplastic large cell lymphoma, suspension) | 0.57 | 0.112 | 0.794 | 0.963 | 0.979 | > 20 | 0.831 | 0.0494 | 0.675 | 0.896 | 0.982 | > 30 | 0.893 | 8.37 | 0.986 | > 32
